PubChem BioAssay AID602179 (National Center for Advancing Translational Sciences (NCATS), 2012)
Screen size: about 390,000 compounds; about 360 (0.092%) were called active. The inconclusive results got no clear call from the source; some entries with a clear call stand among them for comparison. Calls follow the shape of the dose curve; as a rule, active = well fitted inhibition curve with a large enough effect; inconclusive = small, poorly fitted or top-dose-only effect; inactive = no such curve, though single readings can be large or run the other way. A potency beside an inconclusive call is a rough fit, not a confirmed value.
% is scaled to controls: 0 for no effect and ±100 for the full control effect; potency is read from the fitted curve at half-maximal effect; tags tell the direction and shape of the fitted curve.
Also: nearly all actives have a fitted effect of over 65% in size.

These compounds were tested against Isocitrate dehydrogenase [NADP] cytoplasmic (Homo sapiens) (UniProt O75874) (assay: qHTS for Inhibitors of mutant isocitrate dehydrogenase 1 (IDH1): qHTS). Settings: IDH1-R132H enzyme, NADPH consumption, diaphorase/resazurin fluorescence; series mostly up to 76.6 µM; activity change, negative = inhibition: at the top concentration.
Procedure, shortened: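 IDH1-R132H (0.5 ug/mL) preincubated 30 min with compound, then NADPH (0.016 mM) and alpha-KG (2 mM) added; 80 min at RT, pH 7.5. Remaining NADPH coupled via diaphorase/resazurin to fluorescence (540/590 nm); concentration-response curves normalized to no-enzyme control.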
In the case of `CC[C@]12c3[nH]c4ccc(OC)cc4c3CCN1C(=O)C(CC(=O)NC/C=C(\C)CCC=C(C)C)C[C@@H]2C(=O)N1CCN(C(=O)c2ccco2)CC1` (some centres undefined), the Potency was inconclusive: 44.7 µM [inhibitor, single point].
`CC(C)c1ccc(S(=O)(=O)c2cnc(SCC(=O)Nc3ccc4c(c3)OCCO4)[nH]c2=O)cc1` was tested, and the Potency was inconclusive: 50.1 µM [inhibitor, single point].
For `COc1cccc(-c2n[nH]c(=S)n2Cc2ccco2)c1`, the “activity change, negative = inhibition” value was inactive: 0%.
`Cc1c(CCOC(=O)c2ccc(N3CCOCC3)c([N+](=O)[O-])c2)sc[n+]1CC#N` was tested, and the Potency was inconclusive: 58.5 µM [inhibitor, single point].
`CC(=O)N1[C@@H]2CC3C4CC=C5C[C@@H](O)CC[C@]5(C)C4CC[C@]3(C)[C@@]21C(C)=O` (some centres undefined) was tested, and the “activity change, negative = inhibition” value was inactive: -3.79%.
`C[C@H]1CN([C@@H](C)CO)C(=O)CCCn2nncc2CO[C@H]1CN(C)S(=O)(=O)c1ccc(Oc2ccccc2)cc1` was tested, and the Potency was inconclusive: 35.5 µM [inhibitor, partial curve].
For `COc1ccc(S(=O)(=O)N(C)[C@H]2C[C@H]3c4cc(Oc5ccccc5C)ccc4CCN3C(=O)[C@H]2[C@H](C)O)cc1`, the Potency was inconclusive: 28.2 µM [inhibitor, partial curve, poor fit].
In the case of `COc1ccc(/C=N/NC(=O)Cc2csc(Nc3cccc(C(F)(F)F)c3)n2)cc1C`, the “activity change, negative = inhibition” value was inactive: 2.08%.
For `COc1cccc2c1C(=O)c1c(O)c3c(c(O)c1C2=O)C[C@@](O)(C(=O)CO)C[C@@H]3O[C@H]1C[C@H](N)[C@H](O)[C@H](C)O1`, the “activity change, negative = inhibition” value was inactive: -20.6%.
For `CCCc1nc2c(c(=O)c3ccccc3n2C)c(=O)n1-c1cc(C)cc(C)c1`, the Potency was inconclusive: 58.5 µM [inhibitor, single point].
For `CCn1c(SCC(=O)N2CCCc3ccccc32)nc2ccccc2c1=O`, the Potency was inconclusive: 41.4 µM [inhibitor, partial curve, poor fit].
With `CCc1cccc(-n2c(=O)c3cccnc3n2CC(=O)NCc2ccccc2Cl)c1` the “activity change, negative = inhibition” value was inactive: 1.23%.
`CCOc1ccccc1N(C(=O)c1snc(C(N)=O)c1N)C(C(=O)NCc1ccccc1)c1ccc(O)cc1` (centres undefined) was tested, and the Potency was inconclusive: 22.4 µM [inhibitor, full curve].
In the case of `Cc1cccc(/C=N/Nc2cc(N3CCOCC3)nc(N3CCOCC3)n2)c1`, the Potency was inconclusive: 46.5 µM [inhibitor, partial curve].
`CC1(C)CC(=O)C2=C(C1)c1c(ccc3ccccc13)NC2c1cc([N+](=O)[O-])cc([N+](=O)[O-])c1O` (centres undefined) was tested, and the Potency was inconclusive: 52.1 µM [inhibitor, single point].
In the case of `Cc1ccsc1/C=N/n1c(-c2cc(-c3ccccc3)n[nH]2)n[nH]c1=S`, the Potency was inconclusive: 52.1 µM [inhibitor, single point].
`O=C(c1cccs1)N1CCC(c2nc3c(nnn3Cc3ccccc3Cl)c(=O)[nH]2)CC1` was tested, and the Potency was inconclusive: 58.5 µM [inhibitor, partial curve, poor fit].
In the case of `O=C(O)c1ccccc1NS(=O)(=O)c1ccc(N/N=C/c2ccc(O)c(O)c2)c([N+](=O)[O-])c1`, the Potency was inconclusive: 58.5 µM [inhibitor, single point].
`C[n+]1c2n(c3ccccc31)N=C(c1ccc(Br)cc1)CS2` was tested, and the “activity change, negative = inhibition” value was inactive: 1.56%.
`Cc1ccc(Nc2nc(CSc3nnc(-c4ccncc4)n3-c3ccccc3C)cs2)cc1` was tested, and the Potency was inconclusive: 46.5 µM [inhibitor, partial curve].
For `Cc1ccc(CN2CCSc3ccc(C(=O)N4CCN(c5ncccn5)CC4)cc32)cc1`, the Potency was inconclusive: 18.5 µM [inhibitor, single point].
In the case of `CC(Sc1nnc2c(n1)[nH]c1ccccc12)C(=O)N(C)C1CCCCC1` (centres undefined), the “activity change, negative = inhibition” value was inactive: -9.56%.
`O=C(c1c[nH]c(C(=O)C(Cl)(Cl)Cl)c1)c1c(F)cccc1F` was tested, and the Potency was inconclusive: 26.1 µM [inhibitor, partial curve].
In the case of `COC(=O)CSC1=C(C#N)C(=O)NC2(CCCCC2)S1`, the Potency was inconclusive: 58.5 µM [inhibitor, single point].
With `O=c1c(Br)ccc(Br)cc1Br` the Potency was inconclusive: 58.5 µM [inhibitor, single point].
`CC(=O)c1sc(-c2ccccc2)cc1NS(=O)(=O)c1ccccc1` was tested, and the “activity change, negative = inhibition” value was inactive: 6.43%.
For `O=c1c2ccccc2nc2n1CCC2`, the Potency was active: 16.5 µM.
With `O=C(NC1CCCCC1)C(c1ccccc1)N(C(=O)c1cccs1)c1ccc2c(c1)OCO2` (centres undefined) the Potency was inconclusive: 2.33 µM [inhibitor, full curve, poor fit].
With `COCCCn1c(=S)[nH]c2sc3c(c2c1=O)CCCS3` the “activity change, negative = inhibition” value was inactive: 9.05%.
`O=C(NC1CCCC1)C(c1ccccc1)N(Cc1ccco1)C(=O)Cc1cccs1` (centres undefined) was tested, and the Potency was inconclusive: 46.5 µM [inhibitor, partial curve].
In the case of `COc1ccc(-n2c(=O)c3c4c(sc3n(Cc3cc(C)ccc3C)c2=O)CN(C(C)=O)CC4)c(OC)c1`, the Potency was inconclusive: 25.1 µM [inhibitor, full curve].
`Cc1ccc(CNc2nc3ccccc3n3c(C)nnc23)cc1` was tested, and the Potency was inconclusive: 50.1 µM [inhibitor, single point].
For `Cc1ccc(Sc2c(C)nn(C(=O)COc3ccc(F)cc3)c2C)cc1`, the “activity change, negative = inhibition” value was inactive: 22.5%.
In the case of `Cc1ccc2c(c1)C(=O)C(=O)N2Cc1ccc(Br)cc1`, the Potency was inconclusive: 50.1 µM [inhibitor, single point].
For `CCC1CN(C(=O)N2CCC(C(=O)NCCc3ccc(Cl)cc3)CC2)c2ccccc2O1` (centres undefined), the “activity change, negative = inhibition” value was inactive: -0.723%.
In the case of `O=S(=O)(NCCc1nnc2ccc(SCc3ccc(Cl)cc3Cl)nn12)c1ccccc1`, the Potency was inconclusive: 39.8 µM [inhibitor, partial curve].
With `CCc1ccc(CNC(=O)CN2C(=O)c3cccnc3Oc3ccc(Cl)cc32)cc1` the Potency was inconclusive: 44.7 µM [inhibitor, partial curve, poor fit].
In the case of `C=Cc1c(C)c2cc3[nH]c(cc4nc(cc5nc(cc1[nH]2)C(C)=C5CCC(=O)O)C(CCC(=O)O)=C4C)c(C)c3C=C`, the Potency was inconclusive: 28.2 µM [inhibitor, full curve].
For `CC(C)C(=O)NC(c1ccccc1)c1cc([N+](=O)[O-])c2cccnc2c1O` (centres undefined), the Potency was inconclusive: 58.5 µM [inhibitor, single point].
